Assay results published in PubChem BioAssay AID1460 (National Center for Advancing Translational Sciences (NCATS), 2008).
Screen size: about 270,000 compounds; about 5,800 (2.1%) were called active. The shares of active, inactive and inconclusive entries below differ from those in the screen. The call rests on the fitted dose curve; in most records, active means well fitted inhibition curve with a large enough effect; inconclusive means small, poorly fitted or top-dose-only effect; inactive means flat fitted curve, though single readings scatter. Potencies beside an inconclusive call are fits to weak or partial responses and may not hold up. More than one record can exist for a structure, and the calls need not agree.

Target: Microtubule-associated protein tau (Homo sapiens) (UniProt P10636)
UniProt P10636, sequence (P10636 whole entry, looked up): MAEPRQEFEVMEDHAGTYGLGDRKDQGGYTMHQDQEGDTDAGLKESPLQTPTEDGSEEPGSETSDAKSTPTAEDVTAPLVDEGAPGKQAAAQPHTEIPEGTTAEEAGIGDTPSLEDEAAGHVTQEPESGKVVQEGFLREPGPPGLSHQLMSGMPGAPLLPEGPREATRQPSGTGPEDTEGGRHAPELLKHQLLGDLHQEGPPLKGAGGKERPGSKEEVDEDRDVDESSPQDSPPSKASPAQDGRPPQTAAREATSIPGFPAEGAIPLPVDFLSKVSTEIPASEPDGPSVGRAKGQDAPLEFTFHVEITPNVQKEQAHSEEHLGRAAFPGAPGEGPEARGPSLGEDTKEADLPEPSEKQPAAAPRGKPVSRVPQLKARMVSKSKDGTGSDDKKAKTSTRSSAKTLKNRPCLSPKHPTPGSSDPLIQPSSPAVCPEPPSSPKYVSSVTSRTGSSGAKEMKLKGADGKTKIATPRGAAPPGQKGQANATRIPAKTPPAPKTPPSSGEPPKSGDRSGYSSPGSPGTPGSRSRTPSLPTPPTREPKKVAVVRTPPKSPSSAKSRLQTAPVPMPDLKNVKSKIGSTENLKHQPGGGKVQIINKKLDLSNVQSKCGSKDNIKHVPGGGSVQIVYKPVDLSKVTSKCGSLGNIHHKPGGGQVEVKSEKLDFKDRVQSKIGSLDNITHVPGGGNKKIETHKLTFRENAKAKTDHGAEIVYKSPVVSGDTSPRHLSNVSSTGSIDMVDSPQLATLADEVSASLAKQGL
Test: qHTS for Inhibitors of Tau Fibril Formation, Thioflavin T Binding; further: nearly all actives have a fitted effect of over 55% in size
Conditions: recombinant tau K18 P301L, heparin-induced fibrillization, ThT fluorescence; series mostly up to 57.4 µM
How it was run: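 ThT emission at 510 nm, taken 1 hr after adding 30 uM dye, quantifies aggregates formed when 20 uM heparin acts on human tau K18 P301L for 6 hr at 37 C.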
Potency means the concentration at half of the fitted maximal effect; tags describe the fitted curve by direction and shape.

Row | Compound | Potency
1 | N=C1/C(=C\c2ccc(-c3cc(Cl)cc(Cl)c3)o2)C(=O)N=C2SC=C(c3ccccc3)N12 | active: 3.98 µM
2 | Cn1c(N)c(C(=O)COC(=O)c2cncc(Br)c2)c(=O)n(C)c1=O | inconclusive: 17.8 µM [inhibitor, single point]
3 | Cc1nc2ccccn2c1C(=O)N/N=C/c1ccccc1[N+](=O)[O-] | inconclusive: 28.2 µM [inhibitor, partial curve, poor fit]
4 | Cc1sc2nc3c(C(=O)N4CCCC4)cc(C(=O)c4ccccc4O)cn3c(=O)c2c1C | inconclusive: 31.6 µM [inhibitor, partial curve]
5 | CCCN1C(=O)/C(=C/c2ccncc2)SC1=S | inactive
6 | COc1cc(OC)cc(C(=O)/C=C2\Sc3ccccc3N2C)c1 | inconclusive: 4.47 µM [inhibitor, partial curve]
7 | C=C(C)CSc1nc2sc3c(c2c(=O)n1-c1ccccc1)CC(C(C)C)OC3 (stereo not drawn) | inactive
8 | Cc1ccc(S(=O)(=O)NN2C(=O)c3ccccc3NC2c2ccccc2O)cc1 (stereo not drawn) | inactive
9 | Cc1ccc(/C=C/C(=O)Nc2cc(S(N)(=O)=O)ccc2O)cc1 | inconclusive: 31.6 µM [inhibitor, single point]
10 | CCOC(=O)c1cnc2c(C)c(Cl)ccc2c1NCCc1ccccc1 | inconclusive: 31.6 µM [inhibitor, single point]
11 | Cc1ccccc1NC(=O)CNc1ccc(Cl)c(C(F)(F)F)c1 | inactive
12 | CNC(=O)C1C(=S)NC(N)=C(C#N)C1c1ccccc1 (stereo not drawn) | active: 20 µM
13 | N=c1n(CCN2CCCCC2)c2ccccc2n1CC(=O)c1ccc(Cl)c(Cl)c1 | inconclusive: 5.62 µM [inhibitor, single point]
14 | COc1ccc(CNC(=O)C(=O)Nc2ccc(OC)cc2OC)cc1 | inconclusive: 3.16 µM [inhibitor, single point]
15 | CCOC(=O)C(=O)Nc1nc(-c2ccccc2)c(-c2ccccc2)o1 | inactive
16 | COc1ccc(-n2c(O)c(/C=N/NS(=O)(=O)c3ccc(C)c([N+](=O)[O-])c3)c3ccccc3c2=O)cc1OC | inconclusive: 28.2 µM [inhibitor, single point]
17 | COc1ccccc1N1CCN(C(=O)c2ccc(CN3CCc4ccccc4C3)cc2)CC1 | inconclusive: 12.6 µM [inhibitor, partial curve]
18 | CSc1ccc(N=Nc2c(C)[nH]n(C)c2=O)cc1 | active: 8.91 µM
19 | Cc1nc(Nc2ccc(Cl)cc2Cl)sc1C(=O)Nc1ccccc1 | inconclusive: 1 µM [inhibitor, full curve]
20 | Nc1cc(S(=O)(=O)Nc2cc(Cl)ccc2Cl)ccc1N1CCOCC1 | inconclusive: 31.6 µM [inhibitor, single point]
21 | COc1ccc(C2(CNC(=O)/C=C\c3ccco3)CCCC2)cc1OC | inconclusive: 22.4 µM [inhibitor, partial curve]
22 | Clc1cccc(-n2ncc3c(N4CCCCC4)ncnc32)c1 | inconclusive: 3.55 µM [inhibitor, partial curve]
23 | COc1ccc(NC(=O)N2CCN(c3ccc([N+](=O)[O-])cc3)CC2)cc1OC | active: 8.91 µM
24 | CCOc1ccc(NC(=O)CCN2CCN(c3ccccc3)CC2)cc1 | inconclusive: 7.08 µM [inhibitor, partial curve]
25 | O=C(COC(=O)c1cccc(Br)c1)Nc1cccc2c1C(=O)c1ccccc1C2=O | inconclusive: 0.708 µM [inhibitor, full curve, poor fit]

Row | Compound | Potency
26 | Cc1ccc(/C=C/c2onc(C)c2S(=O)(=O)N2CCC(C(=O)N3CCC(N(C)C(C)C)CC3)CC2)cc1 | inactive
27 | CCCC/C=C/C(NC(=O)c1ccco1)c1ccccc1 (stereo not drawn) | inactive
28 | COc1ccc(Nc2oc(-c3ccc(Cl)cc3)nc2C#N)cc1 | inconclusive: 25.1 µM [inhibitor, partial curve, poor fit]
29 | COC(=O)CCC(=O)OC1(C)C(=O)C=C2C=C3CCCN3C=C2C1=O (stereo not drawn) | active: 10 µM
30 | COc1ccc(NC(=O)c2nc3ccccc3s2)cc1 | inconclusive: 39.8 µM [inhibitor, single point]
31 | Cn1nc(-c2ccc(NCCO)c([N+](=O)[O-])c2)c2ccccc2c1=O | inconclusive: 12.6 µM [inhibitor, partial curve, poor fit]
32 | Cc1cccc(N2CCN(c3ccc(NC(=O)/C=C(/C(=O)O)c4ccccc4)cc3)CC2)c1 | active: 8.91 µM
33 | COc1ccc(N2CCN(C(=O)C3CCN(S(=O)(=O)c4cccs4)CC3)CC2)cc1 | inconclusive: 44.7 µM [inhibitor, single point]
34 | Cc1ccc(C)c(S(=O)(=O)N/N=C2/CCCc3ccccc32)c1 | inactive
35 | COc1cc(NC(=O)c2ccc(COCC(F)(F)F)cc2)cc(OC)c1OC | inactive
36 | CCOC(=O)C(NC(=O)CCl)(Nc1sc(C)c(CC)c1C#N)C(F)(F)F (stereo not drawn) | inactive
37 | Cc1ccccc1OCc1nc2ccccc2c(=O)n1/N=C/c1ccco1 | inconclusive: 39.8 µM [inhibitor, single point]
38 | Brc1ccc(-c2noc(CCc3ccccc3)n2)o1 | inconclusive: 7.08 µM [inhibitor, partial curve]
39 | COc1ccc(/C=N/NC(=O)c2cccc(OC(F)(F)C(F)F)c2)cc1O | inconclusive: 7.94 µM [inhibitor, partial curve]
40 | COc1ccccc1/C=C/c1nc2ccccc2n1C(C)C | inconclusive: 15.8 µM [inhibitor, partial curve]
41 | COc1ccc(CN(Cc2cc3cc4c(cc3[nH]c2=O)OCO4)C(=O)NC2CCCCC2)cc1 | inconclusive: 20 µM [inhibitor, partial curve, poor fit]
42 | CCOC(=O)C1CCCN(C(=S)Nc2ccc(OC)cc2)C1 (stereo not drawn) | inactive
43 | COc1ccccc1NC(=O)C(=O)NCC(c1ccc2c(c1)OCO2)N1CCOCC1 (stereo not drawn) | inactive
44 | Cc1onc(-c2ccccc2Cl)c1C(=O)Nc1cccc2cccnc12 | inconclusive: 4.47 µM [inhibitor, single point]
45 | Cc1ccc2nc3c(cc(C(=O)NCC4CCCO4)c(=N)n3C(C)C)c(=O)n2c1 (stereo not drawn) | inconclusive: 0.794 µM [inhibitor, full curve, poor fit]
46 | CC(C)c1ccc(C2=CC(c3ccc(C(C)C)cc3)n3nnnc3N2)cc1 (stereo not drawn) | inactive
47 | COC(=O)Cc1[nH]n(-c2ccccc2)c(=O)c1C(C)=Nc1ccccc1 | inconclusive: 39.8 µM [inhibitor, single point]
48 | NC(N)=Nc1nc2cc([N+](=O)[O-])ccc2o1 | inactive
49 | COc1cc(OC)cc(-c2cc3nc(C)c(CCC(=O)Nc4nc(C)cs4)c(C)n3n2)c1 | inconclusive: 17.8 µM [inhibitor, partial curve]
50 | COc1ccc(S(=O)(=O)N2CCN(c3cc(-c4ccccc4)nc4ncnn34)CC2)cc1 | inconclusive: 20 µM [inhibitor, partial curve, poor fit]

Row | Compound | Potency
51 | Brc1ccc(Nc2nc(-c3cccnc3)cs2)cc1 | inconclusive: 2.51 µM [inhibitor, full curve]
52 | CCOCCCNC(=O)c1c(N)n(-c2ccc3c(c2)OCO3)c2nc3ccccc3nc12 | inactive
53 | Cc1ccccc1Nc1c(-c2ccccn2)nc2c(C)cccn12 | inconclusive: 25.1 µM [inhibitor, single point]
54 | O=Cc1ccc(-c2ccc(Cl)cc2Cl)[nH]1 | inconclusive: 31.6 µM [inhibitor, partial curve]
55 | O=C(NCc1ccco1)c1ccc2c(c1)C(=O)c1ccccc1-2 | active: 12.6 µM
56 | Sc1oc(-c2ccccc2)cc1C=Nc1ccccc1 | active: 8.91 µM
57 | COc1ccccc1CNC(=O)COC(=O)Cc1ccc(Cl)cc1 | inactive
58 | O=C(O)Cc1ccc(N=Nc2c(O)c(C(=O)O)cc3ccccc23)cc1 | active: 12.6 µM
59 | O=C(Nc1cccc(Cl)c1)c1cnc2sc(N3CCCC3)nn2c1=O | inactive
60 | COc1ccc(CNC(=O)Cc2c(C)c3cc4c(C)coc4c(C)c3oc2=O)cc1 | inactive
61 | CCSC1=NC2(CCCCC2)Nc2sc3c(c21)CCCC3 | active: 28.2 µM
62 | CC(/C=N/NC(=O)c1ccco1)=C\c1ccccc1 | inconclusive: 10 µM [inhibitor, partial curve, poor fit]
63 | O=C(COc1ccccc1)NCCSCc1ccco1 | inconclusive: 35.5 µM [inhibitor, partial curve]
64 | Nc1cc2c([N+](=O)[O-])cccc2o1 | inconclusive: 12.6 µM [inhibitor, partial curve]
65 | Cc1nc(C)c(-c2ccc(SCC(=O)Nc3ccc(Br)cc3)nn2)s1 | inconclusive: 2.82 µM [inhibitor, single point]
66 | O=C(Nc1ccc2oc(-c3ccccc3)nc2c1)c1cccs1 | inconclusive: 0.447 µM [inhibitor, partial curve, poor fit]
67 | Cc1ccc2c(c1)NC(=O)C(CC(=O)NCCCN1CCCCC1)O2 (stereo not drawn) | inactive
68 | CCOC(=O)CNC(=O)O[C@@H]1C(=O)c2ccc(OC)cc2O[C@H]1c1ccc2c(c1)OCO2 | inconclusive: 44.7 µM [inhibitor, single point]
69 | O=C(O)C(Cc1cn[nH]n1)=NO | inactive
70 | COc1ccccc1NC(=O)c1ccc(-c2ccccc2F)o1 | inconclusive: 2.82 µM [inhibitor, full curve]
71 | N/C(=N/O)c1ccccc1N1CCC(Cc2ccccc2)CC1 | inconclusive: 5.62 µM [inhibitor, partial curve]
72 | O=C(Nc1ccc(O)c2c(=O)cc(-c3ccccc3Cl)oc12)c1ccc(Br)cc1 | active: 14.1 µM
73 | O=C(CC(Sc1ccccc1)c1cccs1)c1ccco1 (stereo not drawn) | inconclusive: 15.8 µM [inhibitor, partial curve]
